“And” between values parts separate entries of the source, which are not always exact repeats. Equal entries are not always repeated.
Key:
BEL-7404 = assay: MTT assay, BEL-7404 cells; assay type: cell-based, human; conditions: 48 h; for IC50: MTT, mean ± SD from five independent experiments
NCI-H460 = assay: MTT assay, NCI-H460 cells; assay type: cell-based, human; conditions: 48 h; for IC50: MTT, mean ± SD from five independent experiments
T-24 = assay: MTT assay, T-24 cells; assay type: cell-based, human; conditions: 48 h; for IC50: MTT, mean ± SD from five independent experiments
[1] = test system: HL-7702 normal liver cell; assay: MTT assay, HL-7702 normal liver cell; assay type: cell-based; conditions: 48 h; for IC50: MTT, mean ± SD from five independent experiments
HepG2 = assay: MTT assay, HepG2 cells; conditions: for inhibitive ratio Hep-G2 / IC50: 48 h; for IC50: read-out: IC50 HepG2, MTT, mean ± SD from five independent experiments
HepG2 cells [2] = assay: Uptake of metal complexes in HepG2 cells (ICP-MS); assay type: cell-based, human; conditions: HepG2, 2 at 7.0 μM, 3 at […], 8 h
HepG2 cells [3] = assay: Cell cycle analysis by flow cytometry; assay type: cell-based, human; conditions: for cell population in S phase: 24 h, control 31.23%
[4] = test system: cell cycle regulators genes in HepG2 cells; assay: RT-qPCR array, human cell cycle PCR array (PAHS-020Z); assay type: cell-based; conditions: HepG2, 7.0 μM, 24 h
[5] = test system: apoptosis genes in HepG2 cells; assay: RT-qPCR array, human apoptosis PCR array (PAHS-012Z); assay type: cell-based; conditions: HepG2, 7.0 μM, 24 h
ct-DNA = assay: CD absorption spectrometry assay with ct-DNA; assay type: binding; conditions: ct-DNA 1×10^−4 M, [DNA]/[compound] 10:0.5 to 10:2.0
pBR322 plasmid DNA = assay: Agarose gel electrophoresis assay with pBR322 plasmid DNA; assay type: biochemical; conditions: pBR322 0.5 μg/μL
Protocol: The DNA cleavage activity of 2, 3 and LY were tested by agarose gel electrophoresis assay using pBR322 plasmid DNA (0.5 μg/μL) in TBE buffer (pH=8.5). […] In contrast, under the same experimental conditions, when the concentration of 2 increased from 10 μM to 50 μM, the mobility of supercoiled DNA (form I) was reduced, but the relaxed form (form II) was not observed. When the concentration of 2 increased further to 70 μM, the form II DNA appeared. Almost all supercoiled DNA (form I) changed to relaxed DNA (form II) when the concentration of 2 reached 90 and 100 μM.
RT-qPCR was performed. The threshold cycle (Ct) values approval no. SCXK 2014-0002 and SYXK 2014-0003), […]
were housed at a sterile environment with conditions of […]
than 3 days before used. Complexes and LYwere all […]
is limited in 1% in final working solutions. KM mice. The large concentration of 2 in 10% (v/v) […]
ct-DNA CD spectrum as control.
The HepG2 xenograft mice were induced by
37 °C in the dark for 4 h.
The percent weight loss or gain was calculated […]
imaging system under a UV-Vis transilluminator.. Percent tumour growth inhibition after initiation of treatment with 2 and cisplatin were calculated by TGI= […]
initial for control group).
Animals were supplied by Guangxi Medical
University Laboratory Animal Centre (Guangxi, China, […]

HepG2 cells [6] = assay: Hoechst33258 assay; conditions: HepG2, 24 h; 2 at 3.5, 7.0, […]; 3 at 7.0, 14.0, 28.0 μM
caspase-3 in HepG2 cells = assay: Activated caspase-3 by flow cytometry; conditions: HepG2, at IC50, 24 h; control 0.0 %
caspase-8 in HepG2 cells = assay: Activated caspase-8 by flow cytometry; conditions: HepG2, at IC50, 24 h; control 2.1 %
caspase-9 in HepG2 cells = assay: Activated caspase-9 by flow cytometry; conditions: HepG2, at IC50, 24 h; control […]
[7] = Chemical stability test in TBS (UV-Vis, HPLC); conditions: 0 h and 24 h
[8] = test system: cell cycle regulatory proteins in HepG2 cells; assay: Western blot of cell cycle regulatory proteins; conditions: HepG2, 24 h
KM mice = assay: Maximum tolerated dose / in vivo safety profile
HepG2 cells [9] = assay: ROS, intracellular Ca2+ and mitochondrial membrane potential (DCFH-DA, Fluo-3 AM, JC-1); conditions: HepG2, 24 h; 2 at 3.5, 7.0, […]; 3 at 7.0, 14.0, 28.0 μM

**Q.** What does the source list for [Zn(LY)2(ClO4)2] [Complex 4]?
**A.** inhibitive ratio BEL-7404 (BEL-7404; 20 μmol/L): 37.41±1.53%; IC50 (BEL-7404): 29.7 ± 0.96 µM; inhibitive ratio NCI-H460 (NCI-H460; 20 μmol/L): 37.84±1.53%; IC50 (NCI-H460): 8.17 ± 1.69 µM; inhibitive ratio T-24 (T-24; 20 μmol/L): 53.81±2.39%; IC50 (T-24): 16.2 ± 0.93 µM; inhibitive ratio HL-7702 ([1]; 20 μmol/L, normal liver cell): 38.03±1.67%; IC50 ([1]; normal liver cell): 34.6 ± 2.21 µM; inhibitive ratio Hep-G2 (HepG2; 20 μmol/L): 20.39±0.96% and 20.39%; IC50 (HepG2): 35.5 ± 3.99 µM

**Q.** For `O.O.O.[Cl][Ru]([Cl])[Cl]` [RuCl3·3H2O, reference compound], which “inhibitive ratio BEL-7404” value (BEL-7404; metal salts 1× 10-4 mol/L) is on record?
**A.** 32.81±1.52%

**Q.** And the “inhibitive ratio NCI-H460” value (NCI-H460; metal salts 1× 10-4 mol/L)?
**A.** 27.71±0.63%

**Q.** And the “inhibitive ratio T-24” value (T-24; metal salts 1× 10-4 mol/L)?
**A.** 30.23±0.78%

**Q.** What about the “inhibitive ratio HL-7702” value ([1]; metal salts 1× 10-4 mol/L) of the same molecule?
**A.** 29.21±0.99%

**Q.** And the “inhibitive ratio Hep-G2” value (HepG2; metal salts 1× 10-4 mol/L)?
**A.** 25.01±0.99%

**Q.** Which results are given for [Rh(LY-OH)Cl3CH3OH] [Complex 2]?
**A.** inhibitive ratio BEL-7404 (BEL-7404; 20 μmol/L): 37.14±2.55%; IC50 (BEL-7404): 18.37 ± 0.14 µM; inhibitive ratio NCI-H460 (NCI-H460; 20 μmol/L): 63.82±3.26% and 63.82%; IC50 (NCI-H460): 10 ± 2.39 µM; inhibitive ratio T-24 (T-24; 20 μmol/L): 49.62±1.61%; IC50 (T-24): 14.3 ± 1.05 µM; inhibitive ratio HL-7702 ([1]; 20 μmol/L, normal liver cell): 15.11±0.91% and 15.1%; IC50 ([1]; normal liver cell): 35.1 ± 3.34 µM; distribution of the metal (Rh or Mn) in mitochondrial vs nuclear fraction (HepG2 cells [2]): higher in the mitochondrial fraction than in the nuclear fraction; cell population in S phase (HepG2 cells [3]; HepG2, 3.5 μM): 55.23%; cell population in S phase (HepG2 cells [3]; HepG2, 7.0 μM): 79.34%; effect on cell cycle progression (HepG2 cells [3]; HepG2, 24 h): significant cell cycle arrest at the S phase; number of the 89 cell cycle regulators genes differentially expressed in mRNA levels by […] or more [4]: 58 genes; BCL2A1 mRNA expression, up [5]: 63.84 fold; CASP14, GADD45A, HRK, PYCARD, and TNFRSF9 mRNA expression, up [5]: 20.12–33.25 fold; DAPK1 mRNA expression, down [5]: 10.41 fold; number of the 89 apoptosis-related genes differentially expressed in mRNA levels by […] or more [5]: 61 genes; change of CD spectrum of ct-DNA / binding (ct-DNA): significant hypochromism in both the negative and the positive bands; concentration at which form II DNA appeared (pBR322 plasmid DNA; TBE buffer pH=8.5): 70 µM; DNA cleavage activity on supercoiled pBR322 DNA (pBR322 plasmid DNA; TBE buffer pH=8.5, 10 to 100 μM): could cleave supercoiled DNA; Hoechst33258 fluorescence / apoptotic cell morphology (HepG2 cells [6]): stronger fluorescence in a dose-dependent manner; inhibitive ratio Hep-G2 (HepG2; 20 μmol/L): 74.94±0.95%; fold increase of cytotoxicity (IC50) comparing with the free LY ligand (HepG2; HepG2 cells): 1.6–3.2 fold; IC50 (HepG2): 7.56 ± 2.91 µM; proportion of activated caspase-3 cells (caspase-3 in HepG2 cells): 21.1%; proportion of activated caspase-8 cells (caspase-8 in HepG2 cells): 10.3%; proportion of activated caspase-9 cells (caspase-9 in HepG2 cells): 8.1%; stability, UV-Vis spectra and HPLC chromatograms [7]: No obvious changes; proliferating cell nuclear antigen (PCNA) level [8]: decreased; animal death (KM mice; 1/3 MTD every two days for 14 days): no animal death; death of mice (KM mice; single i.p. 22.8 mg/kg, 14 days observation): no death of mice; body weight loss (KM mice; single i.p. 22.8 mg/kg, next day): 15%; maximum tolerable dose (MTD) (KM mice; single intraperitoneal injection, 14 days observation): 22.8 mg/kg; ROS, intracellular Ca2+ and ΔΨm (HepG2 cells [9]): greatly increased the ROS and Ca^2+ levels and promoted the loss of ΔΨm

**Q.** With `O.O.O.O.O.O.[O-][Cl+3]([O-])([O-])[O-].[O-][Cl+3]([O-])([O-])[O-].[Zn+2]` [Zn(ClO4)2·6H2O, reference compound] as the molecule, how does the “inhibitive ratio BEL-7404” value (BEL-7404; metal salts 1× 10-4 mol/L) read?
**A.** 29.55±1.09%

**Q.** What about the “inhibitive ratio NCI-H460” value (NCI-H460; metal salts 1× 10-4 mol/L) of the same molecule?
**A.** 24.08±0.59%

**Q.** And the “inhibitive ratio T-24” value (T-24; metal salts 1× 10-4 mol/L)?
**A.** 20.16±1.09%

**Q.** And the “inhibitive ratio HL-7702” value ([1]; metal salts 1× 10-4 mol/L)?
**A.** 22.34±1.47%

**Q.** And the “inhibitive ratio Hep-G2” value (HepG2; metal salts 1× 10-4 mol/L)?
**A.** 20.18±0.79%

**Q.** Which results are given for [Ru(LY)Cl2(DMSO)2]·3H2O [Complex 1]?
**A.** inhibitive ratio BEL-7404 (BEL-7404; 20 μmol/L): 31.32±1.32%; IC50 (BEL-7404): 49.5 ± 0.53 µM; inhibitive ratio NCI-H460 (NCI-H460; 20 μmol/L): 48.03±3.51%; IC50 (NCI-H460): 15.8 ± 2.31 µM; inhibitive ratio T-24 (T-24; 20 μmol/L): 50.41±3.18%; IC50 (T-24): 20.7 ± 1.83 µM; inhibitive ratio HL-7702 ([1]; 20 μmol/L, normal liver cell): 41.23±2.38%; IC50 ([1]; normal liver cell): 69.2 ± 1.81 µM; inhibitive ratio Hep-G2 (HepG2; 20 μmol/L): 18.83±0.56% and 18.83%; IC50 (HepG2): 57.3 ± 3.32 µM
